Sequences with one replicate were seen in a single cluster, so their values are uncertain.
Test system: ATP
Assay: switch fluorescence ratio, 500 uM ATP over buffer (Cy3 cluster intensity, sum of 5 cycles each) (fold (ratio)); higher = stronger signal-on switching upon ATP binding; sequences stand for … in TCGTCGGCAGCGTCAGATGTGTATAAGAGACAGTTTTTTTTTTTTTTTTTTTTTTTTT…TC
Conditions: aptamer strand: ATP DNA aptamer (quencher-CACCTGGGGGAGTATTGCGGAGGAAGG + anchor), 100 nM annealed; ATP concentration: 500 uM; one replicate
Method in brief: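 Per cluster, summed Cy3 intensity from the target cycles was divided by that from the buffer cycles to give the fluorescence ratio, then averaged per switch-domain sequence. Clusters outside 100-1000 RFU were excluded. The Cy3-labelled switching-strand clusters, on a modified Illumina MiSeq flow-cell, were annealed to 100 nM quencher-labelled ATP aptamer and imaged in selection buffer, then after 15 min with 500 uM ATP at 22 °C, for five cycles with NaOH stripping and re-annealing between them.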
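Note: ATP exposure 15 min at 22 °C before imaging.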

CGGTCGCCAT was tested, and the switch fluorescence ratio was 0.998.

In the case of CAGGCGGTC, the switch fluorescence ratio was 1.01.

Sequence TATAAGCAGC has a switch fluorescence ratio of 1.04.

For ACGGGCTACC, the switch fluorescence ratio was 1.08.

TTCAAGCTAT was tested, and the switch fluorescence ratio was 1.02.

For CGATCACGGA, the switch fluorescence ratio was 1.07.

GTTGATGCAG was tested, and the switch fluorescence ratio was 0.998.

With AGATTTGCAC the switch fluorescence ratio was 1.

Sequence GTTTTAACCC has a switch fluorescence ratio of 0.977.

In the case of AGTCCACATT, the switch fluorescence ratio was 1.06.

CCTCTCCGCT showed a switch fluorescence ratio of 3.57.

Sequence AGAAGGGTAG has a switch fluorescence ratio of 0.979.

With TCTACGGTCC the switch fluorescence ratio was 1.1.

TCCATGCTTG was tested, and the switch fluorescence ratio was 1.01.

For CTGTTCACGC, the switch fluorescence ratio was 1.

Work on AACGAATTAT yielded a switch fluorescence ratio of 2.41.

For ATCATAAGAG, the switch fluorescence ratio was 1.02.

GGATTGTGTC was tested, and the switch fluorescence ratio was 1.05.

For TATCTAAAGG, the switch fluorescence ratio was 1.06.

TCTAACAACT showed a switch fluorescence ratio of 0.991.

ACTGTGGTA gave a switch fluorescence ratio of 1.01.

Work on AAAGCATCAC yielded a switch fluorescence ratio of 2.05.

CGCGTTACTT showed a switch fluorescence ratio of 1.23.

Work on CTCGCAGGAT yielded a switch fluorescence ratio of 3.89.

TTTATATGGG showed a switch fluorescence ratio of 1.01.

ATCCTTGTAA showed a switch fluorescence ratio of 1.05.

In the case of CGAAATTGAA, the switch fluorescence ratio was 0.941.

In the case of GTTAAGTCGG, the switch fluorescence ratio was 1.03.

For GCTCATGC, the switch fluorescence ratio was 1.34.

ACGTCGGCCG was tested, and the switch fluorescence ratio was 0.985.

Sequence GATCACTCTG has a switch fluorescence ratio of 1.05.

CATGAAGGAC was tested, and the switch fluorescence ratio was 1.05.

For TAAATGAGA, the switch fluorescence ratio was 0.986.

For TTTCCCCAGG, the switch fluorescence ratio was 4.68.

For CATGAGCAGT, the switch fluorescence ratio was 1.27.

CTAGGACCTC gave a switch fluorescence ratio of 1.04.

With AGCGATTCCG the switch fluorescence ratio was 1.04.

In the case of GTCGACTTGT, the switch fluorescence ratio was 0.959.

GTGTAGATAT was tested, and the switch fluorescence ratio was 0.994.

In the case of AGAGTACCAC, the switch fluorescence ratio was 0.949.

For GGCGCGTCC, the switch fluorescence ratio was 0.993.

With TTACTCGGGT the switch fluorescence ratio was 0.968.

For CGGCAGTATA, the switch fluorescence ratio was 1.02.

TGACCTC showed a switch fluorescence ratio of 1.02.

GACGGTGT gave a switch fluorescence ratio of 0.973.

GAGGGTTATT showed a switch fluorescence ratio of 0.956.

CAGTAGTCAG gave a switch fluorescence ratio of 0.978.

With CTTTTACGCT the switch fluorescence ratio was 1.04.

AACCAAGCCA showed a switch fluorescence ratio of 0.997.

CAATGCAGTT showed a switch fluorescence ratio of 1.03.

Sequence TCAAAACATT has a switch fluorescence ratio of 1.04.

In the case of CCAGCTTGCG, the switch fluorescence ratio was 0.949.

With ATGAGCGAGG the switch fluorescence ratio was 0.951.

ATAAGATTAA showed a switch fluorescence ratio of 0.971.

Work on ACTAGTTCAA yielded a switch fluorescence ratio of 0.98.

GATAGGAATG showed a switch fluorescence ratio of 0.991.

Work on ACGATAGATC yielded a switch fluorescence ratio of 1.03.

CGTAGTGCTT showed a switch fluorescence ratio of 1.01.

AAGCGGGTCT gave a switch fluorescence ratio of 1.03.

In the case of AGTGCGATGG, the switch fluorescence ratio was 1.03.

For TTATATTGAA, the switch fluorescence ratio was 1.04.

TTGCAAAGTT was tested, and the switch fluorescence ratio was 1.01.

ATAGGGTGGC was tested, and the switch fluorescence ratio was 0.953.

ACGGCCCGTG was tested, and the switch fluorescence ratio was 1.04.

With TTACGTGTAT the switch fluorescence ratio was 1.02.

CACGAGACAG showed a switch fluorescence ratio of 1.04.

GTCTCAATCA showed a switch fluorescence ratio of 1.03.

With CCGGGGCAGT the switch fluorescence ratio was 4.37.

In the case of ATGGTTGTCC, the switch fluorescence ratio was 0.976.

Work on TTACCCGAGT yielded a switch fluorescence ratio of 1.03.

Work on GGCGCTTCGA yielded a switch fluorescence ratio of 0.99.

In the case of AGCTACTTAA, the switch fluorescence ratio was 1.01.

Work on CTTACAGTTC yielded a switch fluorescence ratio of 0.995.

TGTGTCAGAA gave a switch fluorescence ratio of 0.986.

Work on TCGCAACTGA yielded a switch fluorescence ratio of 1.7.

In the case of TAAAAGCTAC, the switch fluorescence ratio was 1.15.

For ATGACGTCTG, the switch fluorescence ratio was 0.962.

Sequence CATGAGTGCG has a switch fluorescence ratio of 0.933.

Sequence TGTTCTCTTG has a switch fluorescence ratio of 0.971.

With ATGAGTTTAT the switch fluorescence ratio was 0.969.

With ATTTCCGCGT the switch fluorescence ratio was 1.33.

Work on GTGCGGATTA yielded a switch fluorescence ratio of 0.972.

AATAGGTTCG was tested, and the switch fluorescence ratio was 0.956.

TCATTCGTAG gave a switch fluorescence ratio of 1.03.

For CAGCTGTGGG, the switch fluorescence ratio was 1.06.

TAGCCGGCGC gave a switch fluorescence ratio of 0.987.

With CCTATGTTAT the switch fluorescence ratio was 1.09.

GCATGCTTGG showed a switch fluorescence ratio of 1.

For ATGGTGTCAT, the switch fluorescence ratio was 0.989.

Work on CAGGAAGTGA yielded a switch fluorescence ratio of 0.991.

For CTTGGCTGAC, the switch fluorescence ratio was 1.41.

AAAAGTTTAC gave a switch fluorescence ratio of 1.06.

CCAACTGCGG was tested, and the switch fluorescence ratio was 1.01.

With TTTCATCTAT the switch fluorescence ratio was 0.996.

Sequence AGGGTGCCGC has a switch fluorescence ratio of 1.01.

Sequence GCTGTAGGAA has a switch fluorescence ratio of 1.02.

For GACGTGTTGA, the switch fluorescence ratio was 0.984.

CGAGATACTA gave a switch fluorescence ratio of 1.11.

AGGGTGGTCA showed a switch fluorescence ratio of 0.983.

GAACCGACTT was tested, and the switch fluorescence ratio was 1.11.

In the case of ACTCTACGAG, the switch fluorescence ratio was 1.06.

In the case of AATGTGCATC, the switch fluorescence ratio was 0.959.

With TGAGAGATGC the switch fluorescence ratio was 1.21.

For CTAGTCTGAT, the switch fluorescence ratio was 1.

For ACCAGCGGAC, the switch fluorescence ratio was 1.28.

For TCAGGAGGTA, the switch fluorescence ratio was 1.

In the case of CGTTAAGATT, the switch fluorescence ratio was 0.995.

CCATTTCCGT gave a switch fluorescence ratio of 1.04.

Sequence GTCATGGCCT has a switch fluorescence ratio of 0.992.

TTAGTTGT was tested, and the switch fluorescence ratio was 0.958.

Work on GTGAAGGCGT yielded a switch fluorescence ratio of 1.03.

TTATTGATAC gave a switch fluorescence ratio of 1.09.

TTGGTCTCTG was tested, and the switch fluorescence ratio was 0.958.

TGGGGCACGC was tested, and the switch fluorescence ratio was 0.997.

For AAAGTCGGCG, the switch fluorescence ratio was 0.988.

In the case of CCGTAATGAT, the switch fluorescence ratio was 2.66.

GTAATTCGGT showed a switch fluorescence ratio of 1.03.

ATCTACACGG was tested, and the switch fluorescence ratio was 1.04.

For ATCATATTCA, the switch fluorescence ratio was 0.952.

Sequence GGTGTGACGA has a switch fluorescence ratio of 1.04.

Work on GAATATGGGG yielded a switch fluorescence ratio of 1.02.

AACGACAACA gave a switch fluorescence ratio of 1.19.

CGCATAATGG was tested, and the switch fluorescence ratio was 1.9.

In the case of GTGAGGCAGG, the switch fluorescence ratio was 0.983.

Work on GTAAGAGTAG yielded a switch fluorescence ratio of 1.

AGCCGAGTAC showed a switch fluorescence ratio of 1.14.

TCAGGAGCGA was tested, and the switch fluorescence ratio was 1.15.

With AGTTGAC the switch fluorescence ratio was 1.05.

With AATGTTATGA the switch fluorescence ratio was 1.06.

ACACATCTGC gave a switch fluorescence ratio of 1.08.

TCATCCAGGT was tested, and the switch fluorescence ratio was 2.

In the case of GTAGCTCATG, the switch fluorescence ratio was 1.05.

With CGAGCGTTGG the switch fluorescence ratio was 0.997.

For CGCCCGGCTC, the switch fluorescence ratio was 1.04.

With ATTAGCGCGG the switch fluorescence ratio was 1.01.

ATCGCTGGT was tested, and the switch fluorescence ratio was 0.989.

With AGTTTGTTAT the switch fluorescence ratio was 1.01.

Sequence TTAGGCATCG has a switch fluorescence ratio of 0.982.

For CGGGCGAACC, the switch fluorescence ratio was 0.991.

ATTAGTTTGT was tested, and the switch fluorescence ratio was 0.986.

Work on TTTGCGATGA yielded a switch fluorescence ratio of 1.07.

CGCCGGGTGT was tested, and the switch fluorescence ratio was 2.13.

In the case of AGAAAGTTAT, the switch fluorescence ratio was 0.984.

Sequence GCATGGCGGA has a switch fluorescence ratio of 1.01.

Sequence AGGAGTATTG has a switch fluorescence ratio of 0.947.

For TCGCTTCCAG, the switch fluorescence ratio was 0.994.

Work on AGTTAGCAGT yielded a switch fluorescence ratio of 1.04.

ACTCAGTAAG showed a switch fluorescence ratio of 1.09.

Work on TGCTCGAGGG yielded a switch fluorescence ratio of 0.971.

With TACCGTTGTT the switch fluorescence ratio was 0.985.

AAGGTAGGT gave a switch fluorescence ratio of 0.984.

With TGTGTTCAAC the switch fluorescence ratio was 1.01.

With TAGGTCGGAC the switch fluorescence ratio was 0.987.

For ACACAGCAAT, the switch fluorescence ratio was 4.96.

Sequence GCCTAGCAAA has a switch fluorescence ratio of 0.968.

AGCATCGAGC gave a switch fluorescence ratio of 0.979.

AAGGCATTGG was tested, and the switch fluorescence ratio was 0.997.

Source: the supplement of paper PMC10126150
